Here are results for 25 compounds from ChEMBL document CHEMBL1201862, “PubChem BioAssay data set” (2004).

Counter-ions that a name gives are not always drawn.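 Each compound was tested at five concentrations against cells in 96-well plates for 48 hours. GI50: concentration for 50% inhibition of growth.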 Calls of active or inactive are those of the source. Rule as the data show it: active = GI50 up to about 1.1 µM and inactive = higher.

The test deals with NCI-H322M. The experiment in a line: DTP human tumour cell line panel, 48 h.
As to `CC(=O)c1c(O)c(C)c(O)c(Cc2c(O)c3c(c(C(=O)/C=C/c4ccccc4)c2O)OC(C)(C)C=C3)c1O` [ROTTLERIN], the GI50 (commonly the concentration giving 50% growth inhibition) was inactive: 2.57 µM.

For the compound `CCC1(O)C(=O)OCc2c1cc1n(c2=O)Cc2cc3c(N)cccc3nc2-1` (stereo not given) [RS-9-Aminocamptothecin], the GI50 is active: 0.137 µM.

In the case of `O=C(O)CNC(=O)c1ccccc1O` [SALICYLURIC ACID], the GI50 was inactive: > 100 µM.

For `O=C(O)CCCCCCCCC(=O)O` [SEBACIC ACID], the GI50 was inactive: > 500 µM.

As to `CC[C@H](CO)Nc1nc(NCc2ccccc2)c2ncn(C(C)C)c2n1` [SELICICLIB], the GI50 was inactive: 29.4 µM.

Consider `O=C1NC(=O)[C@@]2(CC[C@@H](O)C2)c2ccncc21` [SESBANINE], for which the GI50 was inactive: > 100 µM.

Consider `C=C1C[C@H]2C=Nc3cc(OCCCOc4cc5c(cc4OC)C(=O)N4CC(=C)C[C@H]4C=N5)c(OC)cc3C(=O)N2C1` [SJG-136], for which the GI50 was active: 0.0299 µM.

In the case of `Cc1cc(O)c(C=O)c2c1C(=O)Oc1c(CO)c(O)c3c(c1O2)C(O)OC3=O` (stereo not given) [SLAZINIC ACID], the GI50 was inactive: 61.8 µM.

In the case of `O=C([O-])Cc1ccccc1.[Na+]` [SODIUM PHENYLACETATE], the GI50 is inactive: 1130 µM.

In the case of `CC(C)=CCC/C(C)=C/CC/C(C)=C/CC/C(C)=C/CC/C(C)=C/CC/C(C)=C/CC/C(C)=C/CC/C(C)=C/CC/C(C)=C/CO` [SOLANESOL], the GI50 was inactive: > 100 µM.

Take `Oc1c2ccccc2c2c3c(cccc13)N=N2` [SP-600125]: the GI50 is inactive: 24.9 µM.

Consider `NCCCNCCCCNCCCN` [SPERMINE TETRAHYDROCHLORIDE], for which the GI50 was inactive: > 100 µM.

For the compound `Cn1cc(NC(=O)c2cc(NC(=O)c3cc(NC=O)cn3C)cn2C)cc1C(=O)NCCC(=N)N` [STALLIMYCIN], the GI50 is inactive: > 100 µM.

Regarding `CC(=O)O[C@H]1CC[C@]2(C=O)[C@H]3CC[C@]4(C)[C@@H](C5=CC(=O)OC5)CC[C@]4(O)[C@@H]3CC[C@]2(O)C1` [STROPHANTHIDIN ACETATE], the GI50 is active: 0.39 µM.

Turning to `C=C[C@H]1CN2CCc3c([nH]c4c([C@H]5CCCN5C)c(O)ccc34)[C@@H]2C[C@@H]1C[C@H]1c2[nH]c3ccccc3c2CCN1C` [STRYCHNOPENTAMINE], the GI50 is inactive: 1.61 µM.

On to `CC(=O)CC(=O)CCC(=O)O` [SUCCINYLACETONE], for which the GI50 is inactive: 34.4 µM.

As for `Nc1ccc(S(=O)(=O)Nc2nccs2)cc1` [SULFATHIAZOLE], the GI50 was inactive: > 100 µM.

For the compound `CO[C@@H]1C[C@H](OC(N)=O)[C@@H]2C=C[C@@H]3/C=C(C)/C=C/[C@@H](C)[C@H](/C(C)=C/[C@@H](C)NC(C)=O)OC(=O)/C=C/C=C(C)\C=C\[C@]3(C)[C@@H]2C1` [SUPERSTOLIDE B], the GI50 was active: < 0.005 µM.

With `CC1(C)CCC(C)(C)c2cc(NC(=O)c3ccc(C(=O)O)cc3)ccc21` [TAMIBAROTENE], the GI50 was inactive: 33.7 µM.

With `CC/C(=C(\c1ccccc1)c1ccc(OCCN(C)C)cc1)c1ccccc1` [TAMOXIFEN CITRATE], the GI50 was inactive: 6.31 µM.

Take `CC/C(=C(\c1ccccc1)c1ccc(OCC[N+](C)(C)C)cc1)c1ccccc1` [TAMOXIFEN METHYL IODIDE]: the GI50 is inactive: 17.8 µM.

With `Cc1coc2c1C(=O)C(=O)c1c-2ccc2c1CCCC2(C)C` [TANSHINONE IIA], the GI50 is inactive: 3.18 µM.

On to `C[C@@H](C(=O)O)c1ccc(-c2ccccc2)c(F)c1` [TARENFLURBIL], for which the GI50 is inactive: > 100 µM.

As to `NCCS(=O)(=O)O` [TAURINE], the GI50 was inactive: > 100 µM.

On to `CC1(C)CC(O)CC(C)(C)N1O` [TEMPOL HYDROXYLAMINE], for which the GI50 is inactive: > 100 µM.
